Experimental findings from the GPR68 mutational scans of Howard et al. (2025) are described below.

Scores whose standard error is large were omitted. The source holds two more conditions with little spread; they are left out. In variant names, del marks residues removed and ins residues inserted between the two positions. For some assays here: How much ogerin was present is not stated here.

The chains are these.
B1: GPR68, Q15743 (parent)
chain: MGNITADNSSMSCTIDHTIHQTLAPVVYVTVLVVGFPANCLSLYFGYLQIKARNELGVYLCNLTVADLFYICSLPFWLQYVLQHDNWSHGDLSCQVCGILLYENIYISVGFLCCISVDRYLAVAHPFRFHQFRTLKAAVGVSVVIWAKELLTSIYFLMHEEVIEDENQHRVCFEHYPIQAWQRAINYYRFLVGFLFPICLLLASYQGILRAVRRSHGTQKSRKDQIQRLVLSTVVIFLACFLPYHVLLLVRSVWEASCDFAKGVFNAYHFSLLLTSFNCVADPVLYCFVSETTHRDLARLRGACLAFLTCSRTGRAREAYPLGAPEASGKSGAQGEEPELLTKLHPAFQTPNSPGSGGFPTGRLA

The variants in data set [1] derive from B1. The data set is described as follows: cAMP reporter score (Enrich2 score, wild type = 0); higher = more signal; HEK293T, FACS bins.
Data set [2] covers variants of B1. The data set is described as follows: surface expression score (Enrich2 score, wild type = 0); higher = more signal; HEK293T, FACS bins.

As for T350_P351insGSG, the cAMP reporter score in data set [1] (pH 5.5) was 1.04; in data set [1] (pH 6, modulator: ogerin) it was 0.687; in data set [1] (pH 6.5, modulator: ogerin) it was -0.479. In addition, the surface expression score in data set [2] was found to be 2.35.
Q349_P351del: the cAMP reporter score is -0.329 in data set [1] (pH 5.5); 0.206 in data set [1] (pH 6, modulator: ogerin); -0.409 in data set [1] (pH 6.5, modulator: ogerin). Also, the surface expression score in data set [2] was -0.23.
Regarding A347_Q349del, the cAMP reporter score in data set [1] (pH 5.5) worked out at 1.21; in data set [1] (pH 6), 1.44; in data set [1] (pH 6, modulator: ogerin) it was 1.47; in data set [1] (pH 6.5, modulator: ogerin), 1.24. The surface expression score in data set [2] is 1.45.
E337_E339del: the cAMP reporter score in data set [1] (pH 5.5) was -0.552; in data set [1] (pH 6) it was 0.334; in data set [1] (pH 6, modulator: ogerin), 0.001; in data set [1] (pH 6.5, modulator: ogerin), -0.185. In addition, the surface expression score in data set [2] is -0.658.
Taken in the same sequence, the figures for H345C were 0.545, -0.798, 0.411, 0.978 and 0.768.
For H345S, the cAMP reporter score in data set [1] (pH 5.5) amounted to 2.09; in data set [1] (pH 6) it was 3.29; in data set [1] (pH 6, modulator: ogerin) it was 0.763. Besides, the surface expression score in data set [2] stood at 1.73.
For H345V, the cAMP reporter score amounted to 0.536 in data set [1] (pH 5.5); 0.431 in data set [1] (pH 6); 0.384 in data set [1] (pH 6, modulator: ogerin); 0.53 in data set [1] (pH 6.5, modulator: ogerin). For the same variant, the surface expression score in data set [2] is -0.026.
The corresponding values for H345K are -0.016, -1.27, 1.14, -0.463 and 0.899.
Consider H345L, for which the cAMP reporter score stood at 1.15 in data set [1] (pH 5.5); 1.35 in data set [1] (pH 6, modulator: ogerin); 0.953 in data set [1] (pH 6.5, modulator: ogerin). The surface expression score in data set [2] was -0.617.
Consider H345Q, for which the cAMP reporter score was 0.022 in data set [1] (pH 5.5); 0.497 in data set [1] (pH 6); -0.159 in data set [1] (pH 6, modulator: ogerin); 0.661 in data set [1] (pH 6.5, modulator: ogerin). In addition, the surface expression score in data set [2] was found to be 0.039.
In the case of H345F, the cAMP reporter score in data set [1] (pH 5.5) is 1.08; in data set [1] (pH 6), 1.21; in data set [1] (pH 6, modulator: ogerin), 0.493.
In the case of H345R, the cAMP reporter score in data set [1] (pH 5.5) is 1.11; in data set [1] (pH 6), -0.593; in data set [1] (pH 6, modulator: ogerin), -0.406. Besides, in data set [2], the surface expression score was found to be 0.644.
Regarding H345T, the cAMP reporter score in data set [1] (pH 5.5) is 0.956; in data set [1] (pH 6), 1.88; in data set [1] (pH 6, modulator: ogerin), -0.051; in data set [1] (pH 6.5, modulator: ogerin), 0.829. Further, in data set [2], the surface expression score was found to be 1.65.
The corresponding values for H345M are 0.241, -0.371, 0.275, 0.547 and -0.441.
The corresponding values for H345I are -0.062, -0.993, -0.148, -0.479 and -0.036.
Take H345A: the cAMP reporter score in data set [1] (pH 5.5) turned out to be 1.18; in data set [1] (pH 6, modulator: ogerin), 2.17; in data set [1] (pH 6.5, modulator: ogerin), 1.61. Moreover, the surface expression score in data set [2] was found to be 1.69.
Taken in the same sequence, the figures for H345G were 0.738, 1.32, 1.9 and 1.34.
For H345E, the cAMP reporter score in data set [1] (pH 5.5) is 0.715; in data set [1] (pH 6), 0.651; in data set [1] (pH 6, modulator: ogerin) it was 0.853; in data set [1] (pH 6.5, modulator: ogerin) it was 1.03. The surface expression score in data set [2] was found to be 1.58.
Taken in the same sequence, the figures for H345W were 0.906, 1.86, 0.115, 3.39 and -0.411.
With H345N, the cAMP reporter score in data set [1] (pH 5.5) is -0.634; in data set [1] (pH 6, modulator: ogerin) it was 0.286. Moreover, in data set [2], the surface expression score worked out at 0.646.
Consider H345Y, for which the cAMP reporter score in data set [1] (pH 5.5) is -0.413; in data set [1] (pH 6), -0.161; in data set [1] (pH 6, modulator: ogerin), -0.191; in data set [1] (pH 6.5, modulator: ogerin), 0.016. Also, in data set [2], the surface expression score is -0.358.
Turning to H345P, the cAMP reporter score in data set [1] (pH 5.5) stood at 1.01; in data set [1] (pH 6), 0.463; in data set [1] (pH 6, modulator: ogerin), 1.16; in data set [1] (pH 6.5, modulator: ogerin), 0.877. For the same variant, in data set [2], the surface expression score was 1.43.
The corresponding values for H345D are -0.403, -0.747, -0.753, -0.376 and 0.619.
The corresponding values for T350_N352del are -0.168, -0.508, -0.047, -0.412 and -0.766.
On to T342_K343del, for which the cAMP reporter score in data set [1] (pH 5.5) came to 0.984; in data set [1] (pH 6) it was 1.09; in data set [1] (pH 6, modulator: ogerin), 1.2; in data set [1] (pH 6.5, modulator: ogerin), 0.661. Also, the surface expression score in data set [2] turned out to be 0.588.
For L344_H345insGS, the cAMP reporter score in data set [1] (pH 5.5) was 0.588; in data set [1] (pH 6), 0.236; in data set [1] (pH 6, modulator: ogerin), 0.18; in data set [1] (pH 6.5, modulator: ogerin), 0.51. Further, the surface expression score in data set [2] was determined as 0.814.
For H345_P346insGSG, the cAMP reporter score in data set [1] (pH 5.5) is 0.629; in data set [1] (pH 6), 0.472; in data set [1] (pH 6, modulator: ogerin), 1.23; in data set [1] (pH 6.5, modulator: ogerin), 1.33. Moreover, in data set [2], the surface expression score worked out at 0.93.
Taken in the same sequence, the figures for K343_L344insGS were 1.16, 0.815, 0.977, 1.14 and 0.832.
The corresponding values for P338_E339insGSG are 0.918, 1.39, 0.669, 1.11 and 1.54.
The corresponding values for E337_P338insGS are 0.355, -0.534, 1.23, 0.641 and 1.67.
Turning to K343_H345del, the cAMP reporter score is 0.6 in data set [1] (pH 5.5); -0.431 in data set [1] (pH 6); 0.533 in data set [1] (pH 6, modulator: ogerin); 1.71 in data set [1] (pH 6.5, modulator: ogerin). In addition, the surface expression score in data set [2] turned out to be 0.807.
Taken in the same sequence, the figures for E339del were -0.377, -0.215, -0.158, -0.491 and -0.334.
